IC50 is the fitted dose that halves viability relative to control wells, and lower means more sensitive; a fit beyond the top or the lowest dose is shown as a bound at that dose. AUC, from the same fit, is the share of area under the viability curve across the 256-fold dose range: 1 means no effect, lower means more sensitive. Where the top dose is marked as inferred, it is not printed in the source and was worked back from the curve model.
How the values were obtained:
Assay in all cases: Viability of human cancer cell lines after 72 h of drug (GDSC screen)
[1] = compound: CC(C)(C)OC(=O)Nc1ccc(-c2cc(C(=O)NCCCCCCC(=O)NO)no2)cc1 [CAY10603]; settings: top dose 20 µM; top dose inferred
Method: (§1)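 Human cancer cell lines in 384-well plates, medium with 10% serum, drug for 72 h over a 256-fold dose range (nine 2-fold or five 4-fold steps up to the top dose). Adherent lines were fixed and stained with the nucleic acid dye Syto60, suspension lines read with resazurin; signal relative to control wells, capped at 0 and 100%. One two-parameter sigmoid per drug and line, fitted in a mixed model over all curves with the slope shared within a line.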

[2] = compound: N#Cc1c(C2CCNCC2)cc(-c2c(O)cccc2OCC2CC2)nc1N [ACHP (KIN001-260)]; settings: top dose 20 µM; top dose inferred
Method: as §1

[3] = compound: CCc1cc2c(cc1N1CCC(N3CCOCC3)CC1)C(C)(C)c1[nH]c3cc(C#N)ccc3c1C2=O [CH5424802]; settings: top dose 5.12 µM; top dose inferred
Method: as §1

Cell Line | AUC [1] | IC50 [1] [µM] | AUC [2] | IC50 [2] [µM] | AUC [3] | IC50 [3] [µM]
NCI-H522 (lung adenocarcinoma, adherent) | 0.45 | 0.89 | 0.968 | > 20 | 0.978 | > 5.12
COR-L321 (lung, suspension) | 0.223 | 0.195 | 0.979 | > 20 | 0.967 | > 5.12
ML-2 (acute myeloid leukaemia, suspension) | 0.511 | 1.34 | 0.865 | 14.5 | 0.963 | > 5.12
BC-1 (B-cell lymphoma, suspension) | 0.397 | 0.681 | 0.862 | 13.1 | 0.987 | > 5.12
OMC-1 (cervix, adherent) | 0.728 | 5.77 | 0.988 | > 20 | 0.984 | > 5.12
EW-18 (Ewing sarcoma, suspension) | 0.259 | 0.242 | 0.896 | > 20 | 0.812 | 2.98
EW-13 (Ewing sarcoma, suspension) | 0.529 | 1.51 | 0.81 | 12 | 0.875 | > 5.12
DEL (lymphoid neoplasm, suspension) | 0.338 | 0.494 | 0.669 | 3.29 | 0.14 | 0.0352
HuCCT1 (biliary tract, adherent) | 0.601 | 2.45 | 0.936 | > 20 | 0.98 | > 5.12
Daoy (medulloblastoma, adherent) | 0.256 | 0.271 | 0.892 | 19.7 | 0.988 | > 5.12
CTV-1 (acute myeloid leukaemia, suspension) | 0.482 | 1.13 | 0.915 | 19.4 | 0.988 | > 5.12
PANC-03-27 (pancreas, adherent) | 0.57 | 1.91 | 0.962 | > 20 | 0.988 | > 5.12
697 (lymphoblastic leukaemia, suspension) | 0.192 | 0.196 | 0.915 | 19.3 | 0.948 | > 5.12
HCC1143 (breast, adherent) | 0.62 | 3.06 | 0.905 | > 20 | 0.884 | > 5.12
SN12C (kidney, adherent) | 0.658 | 3.64 | 0.985 | > 20 | 0.985 | > 5.12
SW900 (lung squamous cell carcinoma, adherent) | 0.679 | 4.31 | 0.978 | > 20 | 0.947 | > 5.12
MPP-89 (mesothelioma, adherent) | 0.315 | 0.321 | 0.971 | > 20 | 0.98 | > 5.12
MONO-MAC-6 (acute myeloid leukaemia, suspension) | 0.466 | 1 | 0.807 | 11 | 0.938 | > 5.12

Cell Line | AUC [1] | IC50 [1] [µM] | AUC [2] | IC50 [2] [µM] | AUC [3] | IC50 [3] [µM]
HSC-3 (head and neck, adherent) | 0.739 | 5.32 | 0.988 | > 20 | 0.989 | > 5.12
JHU-011 (head and neck, adherent) | 0.458 | 0.96 | 0.972 | > 20 | 0.978 | > 5.12
CAMA-1 (breast, adherent) | 0.546 | 1.73 | 0.968 | > 20 | 0.913 | > 5.12
SIG-M5 (acute myeloid leukaemia, suspension) | 0.153 | 0.164 | 0.667 | 3.21 | 0.994 | > 5.12
KOPN-8 (B-cell leukaemia, suspension) | 0.214 | 0.213 | 0.917 | > 20 | 0.98 | > 5.12
NCI-H647 (non-small cell lung carcinoma, adherent) | 0.58 | 2.09 | 0.922 | > 20 | 0.938 | > 5.12
A431 (skin, adherent) | 0.368 | 0.55 | 0.966 | > 20 | 0.982 | > 5.12
HT-144 (melanoma, adherent) | 0.981 | > 20 | 0.98 | > 20 | 0.978 | > 5.12
VM-CUB-1 (bladder, adherent) | 0.693 | 4.26 | 0.986 | > 20 | 0.987 | > 5.12
NCI-H1869 (lung squamous cell carcinoma, adherent) | 0.769 | 8.53 | 0.931 | > 20 | 0.955 | > 5.12
SUP-M2 (anaplastic large cell lymphoma, suspension) | 0.312 | 0.431 | 0.911 | 16.3 | 0.02 | < 0.02
HDLM-2 (Hodgkin lymphoma, suspension) | 0.887 | > 20 | 0.989 | > 20 | 0.988 | > 5.12
NCI-H748 (small cell lung carcinoma, suspension) | 0.356 | 0.444 | 0.929 | > 20 | 0.974 | > 5.12
COR-L279 (small cell lung carcinoma, suspension) | 0.363 | 0.549 | 0.907 | > 20 | 0.973 | > 5.12
TGBC24TKB (biliary tract, adherent) | 0.774 | 7.33 | 0.97 | > 20 | 0.983 | > 5.12
NCI-H1048 (small cell lung carcinoma, adherent) | 0.628 | 2.7 | 0.924 | > 20 | 0.987 | > 5.12
KNS-81-FD (glioma, adherent) | 0.555 | 1.86 | 0.981 | > 20 | 0.972 | > 5.12
JHH-4 (liver, adherent) | 0.52 | 1.41 | 0.911 | > 20 | 0.962 | > 5.12
